# Results published in PubChem BioAssay AID504832 (National Center for Advancing Translational Sciences (NCATS), 2011).
# The campaign covered roughly 310,000 compounds. About 18,000 (5.8%) were called active. Inconclusive means that the source gave no clear call. Such entries were picked first, then a sample of the others. Calls come from the whole dose curve; as a rule, active = well fitted inhibition curve with a large enough effect; inconclusive = small, poorly fitted or top-dose-only effect, or another doubt; inactive = no such curve, though single readings can be large or run the other way. Potencies of inconclusive entries are left out as doubtful fits.
# Experiment: Primary qHTS for delayed death inhibitors of the malarial parasite plastid, 48 hour incubation
# Details: P. falciparum luciferase growth in erythrocytes; series mostly up to 28.7 µM
# Method in brief: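 A one-generation exposure of luciferase-tagged malaria parasites in RPMI 1640/Albumax erythrocyte culture, 37 C and 5% CO2. Inhibition is inferred from decreased luminescence after adding detection reagent.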
# Potency is the fitted concentration of half-maximal effect; tags give direction and shape of the fitted curve.
row,Structure (SMILES),Potency
1,Cc1nc2ccc(NC(=O)Cc3c(F)cccc3Cl)cc2s1,inactive
2,O=C(N(c1ccccn1)c1ccccn1)C12CC3CC(CC(Cl)(C3)C1)C2,"inconclusive [inhibitor, single point]"
3,Cc1ccc2nc(-c3cccc(N)c3)[nH]c2c1,inactive
4,COc1ccc(/C=C/C(=O)c2ccc3c4c(cccc24)CC3)cc1OC,"inconclusive [inhibitor, partial curve, poor fit]"
5,CC(C)c1ccc(/C=C2\NC(=O)NC2=O)cc1,inactive
6,COc1ccc(OC)c(CN2CCN(CCCc3ccccc3)C(CCO)C2)c1 (stereo not given),inactive
7,N=c1c2c(-c3ccccc3)c(-c3ccccc3)n(Cc3ccccc3)c2ncn1CCCn1ccnc1,active: 0.928 µM
8,COc1cccc(N2CCN(C(=O)c3cc(-c4ccc(F)cc4)[nH]c3C)CC2)c1,"inconclusive [inhibitor, partial curve, poor fit]"
9,O=C(O)/C(=C\c1ccccc1OC(F)F)Sc1nnc(-c2ccc(F)cc2)o1,inactive
10,Cc1ccc(CNC(=O)C2CCN(S(=O)(=O)c3cccs3)CC2)o1,"inconclusive [inhibitor, partial curve]"
11,CCOCCCNC(=O)c1cc2c(s1)-c1ccccc1SC2,active: 2.62 µM
12,O=C(O)CCn1c(SCc2cc(=O)n3ccccc3n2)nc2ccsc2c1=O,"inconclusive [inhibitor, partial curve, poor fit]"
13,O=c1cc(O)nc(SCc2ccccc2)n1-c1ccc(Cl)cc1,inactive
14,CCOc1ccc(C(C(=O)NC(C)(C)C)N(CCOC)C(=O)CCC(=O)Nc2ccccn2)cc1 (stereo not given),inactive
15,CCC(C)(C)NC(=O)C(c1cccc(OC)c1OC)N(CCOC)C(=O)CCC(=O)Nc1cc(C)on1 (stereo not given),inactive
16,CCCCn1c(=N)n(CC(=O)c2ccc(Br)s2)c2ccccc21,active: 10.4 µM
17,Cc1cc(NC(=O)CSc2nc3ccccc3c(=O)n2CCCC(=O)NCc2ccco2)n[nH]1,"inconclusive [inhibitor, single point]"
18,Cc1ccc(N=C2NC(=O)CC(C(=O)Nc3ccc4c(c3)OCO4)S2)cc1 (stereo not given),"inconclusive [inhibitor, partial curve, poor fit]"
19,O=C(Nc1nc(-c2ccc3ccccc3c2)cs1)c1ccc(N2C(=O)CCC2=O)cc1,inactive
20,CNC(=O)c1ccsc1NC(=O)CCS(=O)(=O)c1ccccc1,"inconclusive [inhibitor, partial curve, poor fit]"
21,CCCCn1c(O)c(N=NC(=O)c2ccccc2NS(=O)(=O)c2cccs2)c2ccccc21,inactive
22,CCn1c(CNC(=O)C23CC4CC(CC(C4)C2)C3)nnc1SC,"inconclusive [inhibitor, partial curve, poor fit]"
23,O=C(O)c1cccc(NC(=S)NC(=O)c2ccc(-c3ccc(Cl)cc3)o2)c1,inactive
24,O=C(CSc1ccc2ccccc2n1)N/N=C/c1ccc(O)cc1,inactive

row,Structure (SMILES),Potency
1,Cc1ccc(C(=O)NCc2ccco2)cc1S(=O)(=O)N1CCCCC1,"inconclusive [inhibitor, partial curve, poor fit]"
2,COc1ccc(C(=O)NCCN2CCOCC2)c(OC)c1,inactive
3,Cc1onc(-c2ccccc2)c1-c1csc(N/N=C/c2ccccc2)n1,"inconclusive [inhibitor, partial curve]"
4,CCOc1ccc(N(C)S(=O)(=O)c2ccc(C)c(C(=O)NCCc3ccc(OC)cc3)c2)cc1,"inconclusive [inhibitor, full curve]"
5,O=C(Cc1cn(Cc2cccc(Cl)c2)c2ccccc12)N1CCCCCC1,inactive
6,Cc1ccc(NC(=O)CSCC(=O)N(CCC(C)C)c2c(N)n(Cc3ccccc3)c(=O)[nH]c2=O)cc1,"inconclusive [inhibitor, single point]"
7,O=C(CNCC1CCCCC1)Nc1ccccc1N1CCCCC1,"inconclusive [inhibitor, single point]"
8,COc1ccc(CCNC(=O)C2Cc3ccccc3C(=O)O2)cc1 (stereo not given),"inconclusive [inhibitor, full curve]"
9,COc1ccc(C)cc1NS(=O)(=O)c1ccc2c(c1)NC(=O)C(C)S2 (stereo not given),"inconclusive [inhibitor, full curve, poor fit]"
10,CCOC(=O)C1=C(C)N(c2ccc(OC)cc2)C(=O)/C1=C\c1ccc(O)c(OCC)c1,"inconclusive [inhibitor, single point]"
11,CCOc1ccc(S(=O)(=O)NC2=NCCCCC2)cc1,"inconclusive [inhibitor, partial curve, poor fit]"
12,c1ccc(-c2ccccc2OCCn2cncn2)cc1,"inconclusive [inhibitor, single point]"
13,Cc1ccc(S(=O)(=O)N2CCCC2C(=O)OCc2ccco2)cc1 (stereo not given),inactive
14,COc1cc(O)c(CCC(=O)c2cc(OC)c(OC)c(OC)c2)c(OC)c1,"inconclusive [inhibitor, single point]"
15,COc1ccc(CN2C[C@H](Cc3ccccc3)[C@@H](CC(=O)Nc3ccccc3)C2=O)cc1,"inconclusive [inhibitor, partial curve]"
16,O=C(NC(=S)NCCC1=CCCCC1)c1ccccc1Br,"inconclusive [inhibitor, single point]"
17,COC(=O)Cn1c(=O)c2c(nc3n2CCCN3CCc2ccc(OC)c(OC)c2)n(C)c1=O,"inconclusive [inhibitor, partial curve]"
18,CCOc1ccc(NS(=O)(=O)c2cc(C(=O)NCCCN3CCCC3=O)ccc2C)cc1,"inconclusive [inhibitor, single point]"
19,CC(C)CCNc1nnnc2c1sc1nc(N3CCOCC3)c3c(c12)CC(C)(C)SC3,"inconclusive [inhibitor, full curve]"
20,Cc1cc(CN(C)C(=O)C2CCC(=O)N(CCc3cccc(F)c3)C2)on1 (stereo not given),inactive
21,Cc1ccc(C(=O)OCc2nc3ccsc3c(=O)[nH]2)o1,"inconclusive [inhibitor, single point]"
22,CCC(=O)Nc1c(C)c(CC)nc2ccccc12,"inconclusive [inhibitor, partial curve]"
23,O=C(CCCOc1ccccc1)Nc1cc(S(=O)(=O)N2CCOCC2)ccc1N1CCOCC1,"inconclusive [inhibitor, single point]"
24,COc1ncnc2c1sc1nc(-c3ccccc3)c3c(c12)CCCC3,"inconclusive [inhibitor, single point]"

row,Structure (SMILES),Potency
1,COc1ccc(CNC(=O)c2ccc(N(C)S(=O)(=O)c3ccc(C)cc3)cc2)cc1,"inconclusive [inhibitor, single point]"
2,CC1CCCCN1CCCNc1c(C=O)c(=O)[nH]c2ccccc12 (stereo not given),inactive
3,COc1ccc(CNC(=O)CCc2ccc(S(=O)(=O)N3CCCCCC3)cc2)cc1OC,"inconclusive [inhibitor, partial curve]"
4,Cc1cc(C)n(-c2cc(N3CCN(C(=O)c4cccc(Br)c4)CC3)ccc2[N+](=O)[O-])n1,"inconclusive [inhibitor, partial curve, poor fit]"
5,COC(=O)c1cccc(NC(=O)c2cc3ccccc3o2)c1,active: 9.28 µM
6,O=C(CCOc1ccccc1)Nc1nnc(-c2ccc3c(c2)OCCO3)o1,inactive
7,C=CCn1c(=NC(=O)c2cccs2)sc2cccc(OC)c21,"inconclusive [inhibitor, single point]"
8,Nc1nc(N2CCN(C(=O)c3ccco3)CC2)nc2ccc(Br)cc12,inactive
9,COc1ccc(N(C)C(=O)c2cc3c(s2)-c2c(C)cccc2OC3)c(OC)c1,"inconclusive [inhibitor, partial curve]"
10,Clc1ccccc1-c1nc2nc3ccccc3nc2n1-c1ccc2c(c1)OCO2,"inconclusive [inhibitor, single point]"
11,Cc1[nH]ncc1-c1nc2ccccc2[nH]1,inactive
12,CCn1c(SCC(=O)c2ccc(Cl)s2)nnc1-c1cccs1,"inconclusive [inhibitor, partial curve, poor fit]"
13,CCCN(C(=O)C1CCCN(c2ncnc3c2nc2n3CCCCC2)C1)c1ccc(F)cc1 (stereo not given),"inconclusive [inhibitor, partial curve]"
14,Cc1ccc(NS(=O)(=O)c2ccc(C(=O)NNC(=O)c3ccccc3O)cc2)cc1,"inconclusive [inhibitor, single point]"
15,Cc1ccc(NC(=O)CCN2C(=O)c3ccccc3S2(=O)=O)cc1C,inactive
16,CCOc1cc(/C=C2/SC(=S)N(CC3CCCO3)C2=O)ccc1O (stereo not given),"inconclusive [inhibitor, single point]"
17,COc1ccc(OC)c(-n2c(N)c(C(=O)NCC3CCCO3)c3nc4ccccc4nc32)c1 (stereo not given),"inconclusive [inhibitor, single point]"
18,O=C(Cn1cccc1C(=O)c1ccccc1)NCc1ccccc1Cl,inactive
19,CCOc1ccc(S(=O)(=O)NCCC(=O)Nc2ncccc2C)cc1,"inconclusive [inhibitor, full curve, poor fit]"
20,CCCNC(=O)/C=C/c1ccc(C(C)C)cc1,"inconclusive [inhibitor, full curve, poor fit]"
21,CSCCC(NC(=O)c1ccco1)C(=O)N1CCN(Cc2ccccc2)CC1 (stereo not given),inactive
22,C=CCNC(=S)NN(c1ccccc1)c1ccccc1,"inconclusive [inhibitor, partial curve, poor fit]"
